Reference: publication PMC7819943, “Rice protein-binding microarrays: a tool to detect cis-acting elements near promoter regions in rice”
Some of the results follow.

target: T1, OsWOX13 (Oryza sativa, UniProt Q5QMM3 1-267); experiment: protein-binding microarray (RPBM); PBS, 2% BSA, 51.3 ng/ul salmon testes DNA, 50 uM zinc acetate, 200 nM TF, 25 C, 1 h; high values mean tight binding; settings: protein: recombinant; tags: N-terminal polyhistidine and DsRed monomer fusion (pET32a); label: CyDye5-dUTP incorporated in the synthesized complementary strand; 3' TTTTT single-stranded linker to array surface; dsDNA, one strand shown
T1 sequence: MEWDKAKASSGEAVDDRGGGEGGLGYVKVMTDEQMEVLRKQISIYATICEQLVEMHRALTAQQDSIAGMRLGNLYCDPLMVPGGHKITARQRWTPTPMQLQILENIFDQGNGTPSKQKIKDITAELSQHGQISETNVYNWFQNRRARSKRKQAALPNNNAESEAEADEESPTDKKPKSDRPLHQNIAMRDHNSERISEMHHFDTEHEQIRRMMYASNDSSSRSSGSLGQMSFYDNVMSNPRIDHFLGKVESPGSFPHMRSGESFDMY
Summary of the method: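 Transcription factors were each fused at the N-terminus to a polyhistidine tag plus DsRed and expressed in E. coli BL21-CodonPlus before Ni–NTA purification. Binding to a double-stranded custom Agilent array was carried out with 200 nM protein at 25 °C for 1 h in PBS, 2% BSA, salmon testes DNA and 50 µM zinc acetate. The binding signal is per-feature fluorescence intensity, in arbitrary units, on an Axon 4000B scanner.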

Sequence | binding signal
TGTAATTTGTTTTGTTATTAGACTATGTTTAATACTTCAACGGAGTCACCTAGTGCAG | 5860 fluorescence intensity (a.u.)
TACTAATCCGCGCACTAATTGGATAATTAGTGGTGCGAGGCGGAGTCACCTAGTGCAG | 35000 fluorescence intensity (a.u.)
CTGCTTAATTACTTCAGCCTTTACACATCAGCATATCATACGGAGTCACCTAGTGCAG | 8250 fluorescence intensity (a.u.)
ATAATTGAGTAATACAATAAAGATTGACTGGGTACACAATCGGAGTCACCTAGTGCAG | 23200 fluorescence intensity (a.u.)
GTACACAGATTGATGGATTTAATTAGCACACAGGTTTCATCGGAGTCACCTAGTGCAG | 42800 fluorescence intensity (a.u.)
TAAGAATTAATTATAATAAAATTGCACTTCTGGCAACAGACGGAGTCACCTAGTGCAG | 13900 fluorescence intensity (a.u.)
ACACAGGAAATTGATGTACAGTTTCTCCATATATTGTCAGCGGAGTCACCTAGTGCAG | 10800 fluorescence intensity (a.u.)
AAATAATTACAATGTTTGCGTGTAAATTGCGAGACGAATCCGGAGTCACCTAGTGCAG | 19500 fluorescence intensity (a.u.)
AGCTAGCTTTGACTAATCAATCAGCAGCTAATTTCAGTCTCGGAGTCACCTAGTGCAG | 13700 fluorescence intensity (a.u.)
AATAATTTAACATGCAAATACAATAACTTGGTAAGTGAGTCGGAGTCACCTAGTGCAG | 23900 fluorescence intensity (a.u.)
AATGATTATAGTACGACGAATGGAAGTTATATAGCTATATCGGAGTCACCTAGTGCAG | 18400 fluorescence intensity (a.u.)
TTCAGGCAAATTGAACTCTTCTCGTCGATGCATAGGCATGCGGAGTCACCTAGTGCAG | 4220 fluorescence intensity (a.u.)
ATGGAGAGTGATTAATTATGCTTTCTCCTGTGTGATTTACCGGAGTCACCTAGTGCAG | 15100 fluorescence intensity (a.u.)
CAAATCTAAAGGCAGATTGATCGATCATGCAGAAATCGCCCGGAGTCACCTAGTGCAG | 10200 fluorescence intensity (a.u.)
TTACAAATTTATGCACTAGTAGACTGCATCCACTAAGTTGCGGAGTCACCTAGTGCAG | 6160 fluorescence intensity (a.u.)
GTTTGAAAATTAATTATAAATATTAAACGTAGACTATTAACGGAGTCACCTAGTGCAG | 8440 fluorescence intensity (a.u.)
GACAGTTTGATTTCCTCTTGTGTTTATGCATTATTTTGTGCGGAGTCACCTAGTGCAG | 3640 fluorescence intensity (a.u.)
GGATGTGATTTCAGTTTCAAAGGAACTTTGGATTGGTTCACGGAGTCACCTAGTGCAG | 3740 fluorescence intensity (a.u.)
ACCGCAAGTGACAAATCATTAATTGGTACATCTTAAAAGTCGGAGTCACCTAGTGCAG | 10800 fluorescence intensity (a.u.)
AGCCAAATCATTGGCATTGCCAATGCCCAATTTGATATTTCGGAGTCACCTAGTGCAG | 4300 fluorescence intensity (a.u.)
ATGAATAAGCTATTAGATTGACTATAGATAAATTGGAGCTCGGAGTCACCTAGTGCAG | 18200 fluorescence intensity (a.u.)

Sequence | binding signal
AAATGAGGTGGTATTAACGTATGATTGATTGAGTTTTAATCGGAGTCACCTAGTGCAG | 13800 fluorescence intensity (a.u.)
CACACCTCCTGTCACACTGACTGGAACGCGCGCGCGCGCGCGGAGTCACCTAGTGCAG | 25800 fluorescence intensity (a.u.)
GAGATTAATTTTCTATTCTCTCTTATTTATGGATCATTATCGGAGTCACCTAGTGCAG | 17500 fluorescence intensity (a.u.)
ATAGCTAGTACTAATTAATACAGTACATAATTACAACACTCGGAGTCACCTAGTGCAG | 3530 fluorescence intensity (a.u.)
AAGATTGAATCTGGATGATATCAGGAACCCAAAAGGCAAACGGAGTCACCTAGTGCAG | 22300 fluorescence intensity (a.u.)
ATGACTTAACCCAATTATGACATTTAATCAAACACTAACCCGGAGTCACCTAGTGCAG | 10300 fluorescence intensity (a.u.)
TTCATGTAATTTTGAATCATTAAATCTATTACAAGATTTGCGGAGTCACCTAGTGCAG | 10000 fluorescence intensity (a.u.)
TTTGATGATCGTAATGACAGAGAACTCCTAACATTACTTCCGGAGTCACCTAGTGCAG | 22100 fluorescence intensity (a.u.)
CTGCCGGATTAATTGCAATGAATTGAATTGAAGATCGATCCGGAGTCACCTAGTGCAG | 24400 fluorescence intensity (a.u.)
CAATAATGATCATAATAGTTATAAATTCTTTTATTTGCATCGGAGTCACCTAGTGCAG | 9980 fluorescence intensity (a.u.)
AGAACTTTTAATTATGATGTCTCTAAACAATTTTAGCTCACGGAGTCACCTAGTGCAG | 5810 fluorescence intensity (a.u.)
TTGGACAAATCATTTGGCAAAATTTCAAAGTTTTGAATCTCGGAGTCACCTAGTGCAG | 4390 fluorescence intensity (a.u.)
TACTGATTAATTAACACAAGTTACAGCGGAAACCTTGCCGCGGAGTCACCTAGTGCAG | 52000 fluorescence intensity (a.u.)
GCAGCTAATTGTTCTGAATCTGAAATATTTCTCCTCAACACGGAGTCACCTAGTGCAG | 12700 fluorescence intensity (a.u.)
AACCCAATAATCTTCAATCCAGTCTTGAATTGTTCTGGTGCGGAGTCACCTAGTGCAG | 3500 fluorescence intensity (a.u.)
ATGGGATAACTGCCAAAGATGTGATTTTATAATGGTACGACGGAGTCACCTAGTGCAG | 3980 fluorescence intensity (a.u.)
GAATTAATCAGGTAGAATTTCCCACATTCCCCACTAGGTCCGGAGTCACCTAGTGCAG | 3220 fluorescence intensity (a.u.)
AACAAATTTCTTATATGATTCCTTCTATATTACCAAAAGTCGGAGTCACCTAGTGCAG | 5180 fluorescence intensity (a.u.)
GCCGTGGATGTGAGGAAATTAATGTGCCTAACTGGCTAGACGGAGTCACCTAGTGCAG | 3420 fluorescence intensity (a.u.)
ATAACACTGCTAATCAGTAATCTGGTTCCATTTTCCACGCCGGAGTCACCTAGTGCAG | 12000 fluorescence intensity (a.u.)
TTTTAACCGAGGCAAATTTTAAATTATGAGCTAAATAATGCGGAGTCACCTAGTGCAG | 6070 fluorescence intensity (a.u.)

Sequence | binding signal
AGATCAACTGATTGCATTGACCCTCCAGTGGACTGGAAGTCGGAGTCACCTAGTGCAG | 9680 fluorescence intensity (a.u.)
TGGAGTGGAATTGGGATTGAGAAATGAATGAAGGGTTAGACGGAGTCACCTAGTGCAG | 3380 fluorescence intensity (a.u.)
TTAATCAATGATTTCTTATATAGAGAGAACGGCCCTCACACGGAGTCACCTAGTGCAG | 9740 fluorescence intensity (a.u.)
ATCGAATTGAGGGAGATAAATTGATCTTGTTTTAATAATTCGGAGTCACCTAGTGCAG | 3450 fluorescence intensity (a.u.)
TGCTGATGACGAAATTAACGAGACTAACCGATCCATCAAGCGGAGTCACCTAGTGCAG | 29200 fluorescence intensity (a.u.)
ATTGAATGAGATAAATGATATAACGTATGTCTAAAAGATACGGAGTCACCTAGTGCAG | 6040 fluorescence intensity (a.u.)
TCTTAATGATTGTACCTCTAGTTTTGTTTTCTCTCTTGAACGGAGTCACCTAGTGCAG | 24600 fluorescence intensity (a.u.)
CTAAAAGTAATTTAGACATATCATAAAAGTAATTTGTGATCGGAGTCACCTAGTGCAG | 16000 fluorescence intensity (a.u.)
TAAGGTTGAAAATTTAAATTTTGGTTTATAAACATAAGCACGGAGTCACCTAGTGCAG | 3760 fluorescence intensity (a.u.)
GCTCGTGATTTTCTGCTTGCCCGATTGGGCCTGCGATGTCCGGAGTCACCTAGTGCAG | 5460 fluorescence intensity (a.u.)
AACCAAGTAAAATTATTTATTAATTTTGATAGTTAGTTACCGGAGTCACCTAGTGCAG | 5660 fluorescence intensity (a.u.)
TTCATCTGATTTGCCCTACCTTTGCGCTCCGGCTTGCTCTCGGAGTCACCTAGTGCAG | 7820 fluorescence intensity (a.u.)
TGTTATATTGCTATGATTGTTGAACACCTTCATTCTTGAACGGAGTCACCTAGTGCAG | 11200 fluorescence intensity (a.u.)
AATATATGATTGATTTGTTACAACGAAATATATGGTGGGGCGGAGTCACCTAGTGCAG | 49600 fluorescence intensity (a.u.)
ACAAACCCTCCCGTTGTTTCAATCAACGTTCATTTCGAACCGGAGTCACCTAGTGCAG | 5240 fluorescence intensity (a.u.)
ACTAATAGAGGTGGCATCAATCAAATTTGCTCTTTCTTGTCGGAGTCACCTAGTGCAG | 20900 fluorescence intensity (a.u.)
GATGAAATTATGTTGGATGATAATTTAACATGTTTGTATTCGGAGTCACCTAGTGCAG | 11000 fluorescence intensity (a.u.)
ATAGTAAATATTTAATTGATCAAGCGCTAATCGCTGCTCCCGGAGTCACCTAGTGCAG | 34500 fluorescence intensity (a.u.)
CACATGTAACATTAATTTCTTGCTACTTTAGCAACTACCCCGGAGTCACCTAGTGCAG | 3550 fluorescence intensity (a.u.)
ACCTTGTAGATGTTTGGATTGATGCCAAAATTTACCAAAGCGGAGTCACCTAGTGCAG | 3170 fluorescence intensity (a.u.)
GAGCTGATAATTAACTTGCGGAACGCAAGGGACGACACGACGGAGTCACCTAGTGCAG | 5450 fluorescence intensity (a.u.)

Sequence | binding signal
GGGGAGTAATTGCTAATGGGTGATGATGTGACACATTTGTCGGAGTCACCTAGTGCAG | 24800 fluorescence intensity (a.u.)
TAATAAATTAAAATTTTGTTAAATTTGTTAGACAAACTCCCGGAGTCACCTAGTGCAG | 41300 fluorescence intensity (a.u.)
TTAATTTGATGAAACTAATTTAGTATTATAAATATTACTACGGAGTCACCTAGTGCAG | 19400 fluorescence intensity (a.u.)
GACCAAACCTCCAATTAACAAGGTAGTTTAACACACATCACGGAGTCACCTAGTGCAG | 6600 fluorescence intensity (a.u.)
CATGATTGCACCCTCAAGCAAAGTCCGAATTGATCACCTTCGGAGTCACCTAGTGCAG | 25200 fluorescence intensity (a.u.)
GGACCCTAATTACCCATGTTTAGGTGTGTCGCCAGTATCGCGGAGTCACCTAGTGCAG | 9100 fluorescence intensity (a.u.)
GAAATCTAATTTTATCCACGAGACTATAGTGAGCCTACTCCGGAGTCACCTAGTGCAG | 4290 fluorescence intensity (a.u.)
AGTTGACGAGACGGACACACAGAGGAAGACAGATTAGTCACGGAGTCACCTAGTGCAG | 3980 fluorescence intensity (a.u.)
TATATAGATTGGGAATTTGGGATTTGATACAAAGTACTAACGGAGTCACCTAGTGCAG | 9520 fluorescence intensity (a.u.)
GGTAGCTAATTAGCACATATTTAATTAAGAATAGTTACGACGGAGTCACCTAGTGCAG | 33100 fluorescence intensity (a.u.)
ATGGACAGATTGAAACATTAAGAACTAAACTGATCATTGTCGGAGTCACCTAGTGCAG | 21500 fluorescence intensity (a.u.)
ACACTAATCACTACTTGCCACATGCAGTAACACTCGCCTACGGAGTCACCTAGTGCAG | 6540 fluorescence intensity (a.u.)
TGGTGATAATGTCATTCTGTTATTACAGAGGTCAACGTGTCGGAGTCACCTAGTGCAG | 3410 fluorescence intensity (a.u.)
CATTCTAGTGATTATTGCGACCGTTACTGGCTCTTTCATTCGGAGTCACCTAGTGCAG | 4350 fluorescence intensity (a.u.)
AAATTAATTAATACTATCCGCCACCTTCTCTCAACTCTGACGGAGTCACCTAGTGCAG | 27600 fluorescence intensity (a.u.)
TGAACCATAATTTCACTGTCTATACATGTAACATTATCTTCGGAGTCACCTAGTGCAG | 3650 fluorescence intensity (a.u.)
GAAGGGATTGACGAAAATAGGTGTGAAAGCCATATGCATTCGGAGTCACCTAGTGCAG | 13900 fluorescence intensity (a.u.)
CTTAATGAAATTGAAAATTTTAACTAAAGGGCAAATACAACGGAGTCACCTAGTGCAG | 20000 fluorescence intensity (a.u.)
CTCGTTGGCTAGAGCGCGAGAGCCAGTAGCCGCAGCTGCACGGAGTCACCTAGTGCAG | 19500 fluorescence intensity (a.u.)
CGAATGAATTGATACAGTACATTTCAGGGATTTCATTAGTCGGAGTCACCTAGTGCAG | 4750 fluorescence intensity (a.u.)
GTTATTAGATTGTATAGTAAGAGTTTATTATTTAGCGACTCGGAGTCACCTAGTGCAG | 4340 fluorescence intensity (a.u.)
